# Source: the supplement of paper PMC4604168 (melanoma cell lines)
# The other results are listed elsewhere or left out. Repeats are few or missing, and single values can be far off.
# Tested on: RPMI7951
# Experiment: cell count relative to DMSO control; melanoma cells; higher = more viable cells
# Details: library dose: standard library concentration; 72 h
# 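Note: cells treated in 1,536-well plates, then fixed and DAPI-stained, with nuclei counted from automated high-throughput microscope images.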
row,SMILES,cell count
1,"Clc1ccc(Nc2nnc(Cc3ccncc3)c3ccccc23)cc1 [vatalanib] + COCC[n+]1c2c(n(Cc3cnccn3)c1C)C(=O)c1ccccc1C2=O [YM155] (first compound 10 µM, partner dose 0.002 µM)",70.8%
2,"Cn1c(Nc2ccc(C(F)(F)F)cc2)nc2cc(Oc3ccnc(-c4ncc(C(F)(F)F)[nH]4)c3)ccc21 + O=C(O)C(=O)Nc1sc2c(c1C(=O)O)CCNC2 [TCS401] (first compound 0.4 µM, partner dose 8.33333 µM)",50.8%
3,"O=C(CCCCCCC(=O)Nc1ccccc1)NO [vorinostat] + COc1cc(Nc2ncc(F)c(Nc3ccc4c(n3)NC(=O)C(C)(C)O4)n2)cc(OC)c1OC [Tamatinib] (first compound 0.4 µM, partner dose 2 µM)",15%
4,"O=C(CCCCCCC(=O)Nc1ccccc1)NO [vorinostat] + N#Cc1c(O)c2c(-c3ccc(-c4ccccc4O)cc3)csc2[nH]c1=O [A769662] (first compound 0.4 µM, partner dose 10 µM)",64.8%
5,"Nc1cccc2c1CN(C1CCC(=O)NC1=O)C2=O (stereo unspecified) [lenalidomide] + Cn1cc(/C=C2\C(=O)Nc3cccnc32)c2ccccc21 [GW441756] (first compound 5 µM, partner dose 2 µM)",85.1%
6,"Clc1ccc(Nc2nnc(Cc3ccncc3)c3ccccc23)cc1 [vatalanib] + C=CCn1c(=O)c2cnc(Nc3ccc(N4CCN(C)CC4)cc3)nc2n1-c1cccc(C(C)(C)O)n1 [MK1775] (first compound 10 µM, partner dose 0.1 µM)",47.2%
